{
  "source": "PubChem BioAssay AID485294",
  "about": "(National Center for Advancing Translational Sciences (NCATS), 2010)",
  "note": "The campaign covered roughly 370,000 compounds. About 150 (0.041%) were called active. The inconclusive results got no clear call from the source; some entries with a clear call stand among them for comparison. Calls follow the shape of the dose curve; as a rule, active = well fitted inhibition curve with a large enough effect; inconclusive = small, poorly fitted or top-dose-only effect; inactive = flat fitted curve, though single readings scatter. Potencies of inconclusive entries are left out as doubtful fits. Potency is read from the fitted curve at half-maximal effect; tags tell the direction and shape of the fitted curve.",
  "data": [
    {"target": "Beta-lactamase (Escherichia coli (strain K12)) (UniProt P00811)", "sequence (P00811 whole entry, looked up)": "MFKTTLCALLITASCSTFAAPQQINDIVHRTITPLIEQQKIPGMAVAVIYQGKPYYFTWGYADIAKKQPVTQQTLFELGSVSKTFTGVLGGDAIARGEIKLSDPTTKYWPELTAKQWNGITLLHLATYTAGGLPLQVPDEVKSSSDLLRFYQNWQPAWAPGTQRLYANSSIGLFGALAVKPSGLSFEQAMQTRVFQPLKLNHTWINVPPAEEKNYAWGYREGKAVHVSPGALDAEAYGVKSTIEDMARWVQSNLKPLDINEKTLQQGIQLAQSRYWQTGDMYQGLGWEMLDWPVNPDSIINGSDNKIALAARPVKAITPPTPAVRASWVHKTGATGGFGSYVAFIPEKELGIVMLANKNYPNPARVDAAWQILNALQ", "test": "qHTS Inhibitors of AmpC Beta-Lactamase (assay with detergent); also: nearly all actives have a fitted effect of over 25% in size;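 as to activity change, negative = inhibition: 0% = no-compound wells and -100% = no-enzyme wells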", "conditions": "AmpC hydrolysis of nitrocefin, absorbance 480 nm, 0.01% Triton; activity change, negative = inhibition: at 114 µM (top of the series)", "procedure,_shortened": "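20 mM phosphate pH 7.0 + 0.01% (detergent screen) or 0.0001% Triton X-100; 5.3 nM AmpC reagent; cpd preinc 15 min RT; nitrocefin (800 uM stock) to start; A480 q20 s × 4 min; Activity was normalised to no-enzyme and no-compound control wells.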", "values": [
      {"smiles": "Cc1nc(OCc2ccccc2)c2sc3nc4c(cc3c2n1)COC(C)(C)C4", "activity change, negative = inhibition": "inactive: -4.03%"},
      {"smiles": "CCCCc1nc2ccccc2c(NC(=O)CN(CC)CC)c1CCC", "Potency": "inconclusive [inhibitor, single point]"},
      {"smiles": "CC(=O)N(c1cccc(Cl)c1)c1nc(C)cc(C)c1C#N", "activity change, negative = inhibition": "inactive: 2.31%"},
      {"smiles": "O=C(Cc1ccccc1)Nc1nnc(-c2cccs2)s1", "Potency": "inconclusive [inhibitor, full curve]"},
      {"smiles": "Cc1ccc(C)c(NC(=S)NCc2ccccc2)c1", "Potency": "inconclusive [inhibitor, full curve, poor fit]"},
      {"smiles": "COc1ccccc1OCC(=O)OCC(=O)NCCN1C(=O)CSC1=O", "activity change, negative = inhibition": "inactive: -12.1%"},
      {"smiles": "O=C(CNC1CCCC1)Nc1ccc(N2CCCCCC2)cc1", "activity change, negative = inhibition": "inactive: -15.1%"},
      {"smiles": "CC1(C)COC(Nc2ccc(Cl)cc2)=N1", "Potency": "inconclusive [inhibitor, full curve]"},
      {"smiles": "O=C(CSC1c2ccccc2-c2ccccc21)N/N=C/c1ccccc1O", "Potency": "inconclusive [inhibitor, partial curve, poor fit]"},
      {"smiles": "Cc1cc(C)cc(NC(=O)C(=O)NCC(c2cccnc2)N2CCN(c3ccccc3)CC2)c1", "note": "(stereo unspecified)", "activity change, negative = inhibition": "inactive: 18.1%"},
      {"smiles": "O=C(NC1CCCCCCC1)c1ccc(Br)o1", "Potency": "inconclusive [inhibitor, partial curve, poor fit]"},
      {"smiles": "Cc1ccc2cc(CCNC(=O)C(C)C)c(=O)[nH]c2c1", "Potency": "inconclusive [inhibitor, full curve]"},
      {"smiles": "COc1cccc(N2CCN(C(=O)c3ccc4nc(N5CCCCC5)sc4c3)CC2)c1", "activity change, negative = inhibition": "inactive: -11%"},
      {"smiles": "CCc1nc2sc3c(=O)[nH]cnc3c2c2c1CSC(C)(C)C2", "activity change, negative = inhibition": "inactive: -11.7%"},
      {"smiles": "CC(O)Cn1ccccc1=N", "note": "(stereo unspecified)", "Potency": "inconclusive [inhibitor, full curve]"},
      {"smiles": "Cc1ccc(OCC(=O)Nc2ccc3oc(=O)ccc3c2)cc1C", "Potency": "inconclusive [inhibitor, full curve, poor fit]"},
      {"smiles": "O=C1c2ccccc2-c2onc3ccc(NCc4ccco4)c1c23", "activity change, negative = inhibition": "inactive: -15.4%"},
      {"smiles": "CCOc1ccc(Nc2ncnc3c2nnn3Cc2ccccc2)cc1", "Potency": "inconclusive [inhibitor, full curve, poor fit]"},
      {"smiles": "C/C(=N\\NC(=O)CNC(=O)C(c1ccccc1)c1ccccc1)c1ccc(C(C)(C)C)cc1", "Potency": "inconclusive [inhibitor, full curve, poor fit]"},
      {"smiles": "COc1ccccc1-c1noc(-c2ccc(NCc3cccnc3)c([N+](=O)[O-])c2)n1", "activity change, negative = inhibition": "inactive: -13.2%"},
      {"smiles": "C=CCC1(NC(C)c2ccccc2)CCCCC1", "note": "(stereo unspecified)", "Potency": "inconclusive [inhibitor, full curve, poor fit]"},
      {"smiles": "CNC(=O)NC(=O)COC(=O)CCc1nc(=O)c2ccccc2n1C", "Potency": "inconclusive [inhibitor, single point]"},
      {"smiles": "CC1CCCCC1NC(=O)CN1CCN(Cc2ccccc2Cl)C1=O", "note": "(stereo unspecified)", "Potency": "inconclusive [inhibitor, partial curve]"},
      {"smiles": "O=C(COc1cccc2ccccc12)N/N=C/C=C/c1ccccc1", "Potency": "inconclusive [inhibitor, single point]"},
      {"smiles": "Clc1cccc(CN2CCCCCC2)c1Cl", "Potency": "inconclusive [inhibitor, partial curve]"},
      {"smiles": "O=C(Nc1ccc(F)cc1)c1ccc(Cn2cnnn2)cc1", "activity change, negative = inhibition": "inactive: 0.113%"},
      {"smiles": "CC1(C)CC(=O)c2cc(-c3nc(-c4ccc(Cl)cc4)cs3)c(=O)n(-c3cccc(F)c3)c2C1", "activity change, negative = inhibition": "inactive: -8.22%"},
      {"smiles": "CN(C)c1ccc(/C=C/c2cc[n+](C)cc2)cc1", "Potency": "inconclusive [inhibitor, full curve]"},
      {"smiles": "COc1ccc(NC(=O)/C(=C\\c2cc(OC)c(OC)cc2[N+](=O)[O-])NC(=O)c2ccccc2)cc1", "Potency": "inconclusive [inhibitor, partial curve]"},
      {"smiles": "COc1cc(Cc2nccc3cc(OC)c(OC)cc23)c(NC(C)=O)cc1OC", "Potency": "inconclusive [inhibitor, partial curve, poor fit]"},
      {"smiles": "Cc1ncsc1C(=O)N1N=C2/C(=C/c3ccccc3)CCCC2C1c1ccccc1", "note": "(stereo unspecified)", "activity change, negative = inhibition": "inactive: -2.87%"},
      {"smiles": "CCCNC(=O)C1CCN(Cc2cc3ccccc3n2Cc2ccccc2)CC1", "activity change, negative = inhibition": "inactive: 0.789%"},
      {"smiles": "Cc1ccccc1-c1nc(CS(=O)(=O)CC(=O)NC2CC2)c(C)o1", "activity change, negative = inhibition": "inactive: -0.733%"},
      {"smiles": "O=C(C1CCCN(S(=O)(=O)c2cnc[nH]2)C1)N(CCc1ccccc1)Cc1ccccc1", "note": "(stereo unspecified)", "Potency": "inconclusive [inhibitor, full curve, poor fit]"},
      {"smiles": "N=c1sccn1CC(=O)Nc1ccccc1Oc1ccccc1", "activity change, negative = inhibition": "inactive: 4.71%"},
      {"smiles": "CCCOc1ccc(N2CC(C(=O)Nc3ccccc3OC)CC2=O)cc1", "note": "(stereo unspecified)", "Potency": "inconclusive [inhibitor, partial curve]"},
      {"smiles": "CC(C)c1ccc(-c2nnc(N)s2)cc1", "activity change, negative = inhibition": "inactive: -1.35%"},
      {"smiles": "O=C(NNC(=S)NC(=O)c1ccc(Br)cc1)c1ccc([N+](=O)[O-])cc1", "Potency": "inconclusive [inhibitor, full curve, poor fit]"},
      {"smiles": "Cc1cc(C)c(C)c(S(=O)(=O)N2CCC(C(=O)N3CCCCCCC3)CC2)c1C", "Potency": "inconclusive [inhibitor, full curve, poor fit]"},
      {"smiles": "O=C(Nc1cc(-c2nc3cc(Cl)ccc3o2)ccc1Cl)c1cc2ccccc2o1", "activity change, negative = inhibition": "inactive: 0.53%"},
      {"smiles": "Cc1nn(CCc2nn[nH]n2)c2nc(-c3ccc(C4CCCCC4)cc3)cc(C(F)(F)F)c12", "Potency": "inconclusive [inhibitor, single point]"},
      {"smiles": "O=C(c1ccccc1F)N1C[C@H]2C[C@@H](C1)c1cccc(=O)n1C2", "Potency": "inconclusive [inhibitor, full curve, poor fit]"},
      {"smiles": "CCc1cccc(CC)c1NC(=O)CN1CCN(c2ccccc2)CC1", "Potency": "inconclusive [inhibitor, full curve]"},
      {"smiles": "O=C(O)c1ccc(N(Cc2ccccc2)S(=O)(=O)c2ccccc2)cc1", "Potency": "inactive"},
      {"smiles": "COc1ccccc1[As](=O)(O)CC(O)COc1ccc(Cl)cc1Cl", "note": "(stereo unspecified)", "Potency": "inconclusive [inhibitor, partial curve, poor fit]"},
      {"smiles": "CC1=NN(C(N)=S)C(=O)C1N=Nc1ccc(C)c(Br)c1", "note": "(stereo unspecified)", "Potency": "inconclusive [inhibitor, full curve, poor fit]"},
      {"smiles": "CCOC(=O)C1CCCN(C(=O)CN(c2ccc(OC)cc2)S(=O)(=O)c2c(C)noc2C)C1", "note": "(stereo unspecified)", "Potency": "inconclusive [inhibitor, full curve, poor fit]"},
      {"smiles": "O=C(CN1C(=O)COc2ccccc21)N1CCC2(CC1)OCCO2", "Potency": "inconclusive [inhibitor, partial curve, poor fit]"},
      {"smiles": "Cn1c(=O)n(Cc2ccccc2F)c(=O)c2c1nc1n2CCCN1CCc1ccccc1", "Potency": "inconclusive [inhibitor, single point]"},
      {"smiles": "COc1ccc(OCc2n(CC(=O)OC3CC(C)CCC3C(C)C)c3ccccc3[n+]2C)cc1", "note": "(stereo unspecified)", "activity change, negative = inhibition": "inactive: 7.6%"},
      {"smiles": "CCN(CC)c1ccc(NC(=O)CN2C(=O)CSc3ncccc32)c(C)c1", "Potency": "inconclusive [inhibitor, full curve]"},
      {"smiles": "CCCCC(=O)Nc1ccc(NC(=O)CC)cc1OC", "Potency": "inconclusive [inhibitor, full curve]"},
      {"smiles": "N=c1c2c(-c3ccccc3)c(-c3ccccc3)n(Cc3ccco3)c2ncn1CCCN1CCOCC1", "Potency": "inconclusive [inhibitor, full curve, poor fit]"},
      {"smiles": "COc1ccccc1NC(=S)NNC(=O)c1cc(C)n(C)n1", "Potency": "inconclusive [inhibitor, single point]"},
      {"smiles": "CC(C)N1CCc2c(sc(NC(=S)NC(=O)c3ccccc3)c2C#N)C1", "activity change, negative = inhibition": "inactive: -12%"},
      {"smiles": "CCOc1cc(N2CCOCC2)c(OCC)cc1NC(=O)CCS(=O)(=O)c1ccc(Cl)cc1", "Potency": "inconclusive [inhibitor, full curve, poor fit]"},
      {"smiles": "COc1ccc(-c2cc(OC(=O)c3ccc(F)cc3)c3c(C)oc(C)c3c(=O)c2)cc1", "activity change, negative = inhibition": "inactive: -9.45%"},
      {"smiles": "O=C(NC1CCCC1)C(c1cccs1)N(CC1CCCO1)C(=O)Cc1cccs1", "note": "(stereo unspecified)", "Potency": "inconclusive [inhibitor, full curve, poor fit]"},
      {"smiles": "CCCOc1ccccc1C1CC(=O)NC2=C1C(=O)CCC2", "note": "(stereo unspecified)", "Potency": "inconclusive [inhibitor, single point]"},
      {"smiles": "Cc1ccc(NC2=CC(=O)CCC2)cc1C", "Potency": "inconclusive [inhibitor, partial curve]"},
      {"smiles": "CCOC(=O)Cc1nnc(NC(=O)c2cccc(OCC)c2)s1", "Potency": "inconclusive [inhibitor, full curve, poor fit]"},
      {"smiles": "O=C(CSc1nc2ccccc2s1)N1c2ccccc2Sc2ccc(C(F)(F)F)cc21", "activity change, negative = inhibition": "inactive: -7.14%"},
      {"smiles": "Cc1ccc(-c2csc(NC(=O)C3=NN(c4ccccc4)C(=O)CC3)n2)cc1", "activity change, negative = inhibition": "inactive: -10.6%"},
      {"smiles": "Cc1c(Cc2ccc3c(c2)OCO3)sc(NC(=O)C(C)(C)C)c1C#N", "Potency": "inconclusive [inhibitor, full curve, poor fit]"},
      {"smiles": "CC(C)(C)c1ccc(S(=O)(=O)N2CC(=O)Nc3ccccc32)cc1", "Potency": "inconclusive [inhibitor, partial curve, poor fit]"},
      {"smiles": "Cc1nc(SCC(=O)Nc2ccc(Cl)cc2C(F)(F)F)[nH]c(=O)c1Cc1ccccc1", "activity change, negative = inhibition": "inactive: 23.3%"},
      {"smiles": "COc1ccccc1N(/N=C1\\Sc2ccccc2C1=O)C(C)=O", "Potency": "inconclusive [inhibitor, full curve, poor fit]"},
      {"smiles": "O=C(Nc1ccc2nsnc2c1)NC1CCCCC1", "activity change, negative = inhibition": "inactive: 5.91%"},
      {"smiles": "Cc1cc(-c2ccccc2)nc2cc(C(=O)Nc3cc(C(F)(F)F)ccc3Cl)nn12", "activity change, negative = inhibition": "inactive: 13%"},
      {"smiles": "COc1ccc2ccc3c(c2c1)N=C[C@]1(O3)N(C)c2ccccc2C1(C)C", "Potency": "inconclusive [inhibitor, partial curve]"},
      {"smiles": "O=C(NCCN1CCN(c2ccccc2)CC1)c1ccccc1F", "Potency": "inconclusive [inhibitor, single point]"}
    ]}
  ]
}
